# In all, about 280,000 compounds went through this assay and about 100 (0.036%) were called active. This list was built around the results that the source calls inconclusive (neither active nor inactive); the mix of calls is not that of the screen. Calls follow the shape of the dose curve; as a rule, active = well fitted inhibition curve with a large enough effect in the signal ratio, with a control signal flat (not every such curve was filed as active); inconclusive = small, poorly fitted or top-dose-only effect, or effect the other way, or a change in a side signal; inactive = no such curve, though single readings can be large or run the other way; the % refers to the signal ratio. Potencies of inconclusive entries are doubtful fits and often do not repeat. A note “side channel” means that the fit belongs to a control or component signal, not to the main read-out.
# Target: Muscleblind-like protein 1 (Homo sapiens) (UniProt Q9NR56)
# UniProt Q9NR56, sequence (Q9NR56 whole entry, looked up): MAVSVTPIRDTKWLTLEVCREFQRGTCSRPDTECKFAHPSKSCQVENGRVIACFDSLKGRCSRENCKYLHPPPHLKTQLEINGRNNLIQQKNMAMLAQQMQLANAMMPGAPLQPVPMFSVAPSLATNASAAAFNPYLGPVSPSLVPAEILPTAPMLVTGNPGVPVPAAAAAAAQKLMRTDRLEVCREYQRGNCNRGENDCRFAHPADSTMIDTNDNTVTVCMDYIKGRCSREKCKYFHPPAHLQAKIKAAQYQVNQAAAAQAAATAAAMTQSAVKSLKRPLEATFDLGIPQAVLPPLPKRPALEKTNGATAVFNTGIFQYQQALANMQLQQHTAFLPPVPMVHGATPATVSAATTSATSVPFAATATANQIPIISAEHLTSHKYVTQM
# Assay: qHTS Assay for Inhibitors of MBNL1-poly(CUG) RNA binding
# Settings: TR-FRET MBNL1-His/biotin-(CUG)12 binding, 665/545 ratio; activity change, negative = inhibition: at 57.5 µM (top of the series)
# Method in brief: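 Compound titration spanned 92 nM–58 uM against the MBNL1-His/biotin-(CUG)12 complex. After 60 min at room temperature with 5 nM streptavidin-XL665 and 0.055 ng/ul terbium anti-His, ratiometric 665/545 nm emission (Ex 340 nm) normalized to controls.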
# % is scaled to controls: 0 for no effect and ±100 for the full control effect; potency is read from the fitted curve at half-maximal effect; tags tell the direction and shape of the fitted curve or compound fluorescence and quenching.
Compound,Potency,"activity change, negative = inhibition"
COc1cccc(F)c1C(=O)NC(=O)Nc1ccc2nc(C)oc2c1,"inconclusive: 15.8 µM [quencher, side channel, partial curve]",–
CN(C)c1nc(-c2ccc([N+](=O)[O-])cc2)cs1,"inconclusive: 11.2 µM [quencher, partial curve]",–
COc1ccc(-c2nc(Cn3c(SCc4ccc(C)cc4)nc4ccncc43)c(C)o2)cc1OC,–,inactive: -10.2%
CN=c1scc(-c2ccc(F)cc2)n1/N=C/c1ccc(O)c(O)c1,–,inactive: 19.5%
Cc1ccc(C(=O)Oc2oc(-c3ccccc3)nc2C=Nc2ccc(N(C)C)cc2)cc1,"inconclusive: 0.141 µM [fluorescent, side channel, full curve, poor fit]",–
COc1cccc(/C=C2/Sc3ccc(C(=O)NCCN4CCCCCC4)cc3NC2=O)c1,"inconclusive: 28.2 µM [quencher, side channel, partial curve]",–
O=C(O)c1ccc2c3c(cccc13)C(=O)N(OS(=O)(=O)c1ccccc1)C2=O,"inconclusive: 6.31 µM [quencher, side channel, partial curve]",–
CCC(C(=O)O)N1C(=O)/C(=C/c2cccn2C)SC1=S (stereo not drawn),"inconclusive: 20 µM [quencher, side channel, partial curve, poor fit]",–
COc1ccc(N(C(=O)c2ccco2)C(C(=O)NC2CCCCC2)c2cccs2)cc1OC (stereo not drawn),–,inactive: 8.76%
N=c1c(C(=O)NC2CCCC2)cc2c(=O)n3ccccc3nc2n1CCCN1CCOCC1,"inconclusive: 7.94 µM [quencher, side channel, full curve]",–
O=C(NCCc1ccccc1)c1ccc([N+](=O)[O-])cc1,"inconclusive: 17.8 µM [quencher, side channel, partial curve]",–
CCOC(=O)C1C(=O)NC(c2ccccc2)=NC1c1ccc(Cl)cc1 (stereo not drawn),"inconclusive: 28.2 µM [quencher, side channel, single point]",–
Cc1ccc(NC(=O)c2ccc(NCCN)c([N+](=O)[O-])c2)cc1,"inconclusive: 7.94 µM [quencher, side channel, full curve]",–
CCN(CC)c1nc(-c2ccccc2)ncc1S(=O)(=O)c1ccc(C)cc1,–,inactive: 11.4%
Cc1nn(-c2cc(N3CCCC3)ccc2[N+](=O)[O-])c(=O)c2ccccc12,"inconclusive: 5.62 µM [quencher, side channel, partial curve]",–
Cc1cc(C)n(-c2ccc(C(=O)Nc3ccc(S(=O)(=O)N(C)C)cc3)cc2)n1,"inconclusive: 39.8 µM [fluorescent, side channel, single point]",–
O=C(/C=C/c1cc([N+](=O)[O-])ccc1OC(F)F)Nc1cccc(OC(F)F)c1,–,inactive: 2.83%
COc1ccc(CCN(C)c2ccc(S(=O)(=O)N3CCCC3)cc2[N+](=O)[O-])cc1OC,"inconclusive: 31.6 µM [quencher, side channel, single point]",–
COc1ccc(C2=NS(=O)(=O)N(C)C(C(=O)NC3CCCCC3)=C2)cc1OC,"inconclusive: 25.1 µM [quencher, partial curve]",–
CCOC(=O)N1CCN(C(=O)c2ccc3c(c2)N(C)C(=O)/C(=C\c2ccc(OCC)c(OC)c2)S3)CC1,"inconclusive: 12.6 µM [quencher, side channel, partial curve]",–
C=CCn1c(CNC(=O)c2ccccc2F)nnc1SCC(=O)NC(C)c1ccccc1 (stereo not drawn),–,inactive: -4.34%

Compound,Potency,"activity change, negative = inhibition"
O=C1/C(=C\c2cccs2)SC(=S)N1C1CCS(=O)(=O)C1 (stereo not drawn),"inconclusive: 17.8 µM [quencher, side channel, partial curve]",–
CCCSc1nnc(-c2ccccc2N)c(=O)[nH]1,"inconclusive: 15.8 µM [quencher, side channel, partial curve]",–
O=C(CCl)Nc1cc(-c2ccccc2)nn1-c1ccccc1,–,inactive: 2.77%
COc1cc(OC)cc(C(=O)NC(=S)NCCc2ccccc2)c1,"inconclusive: 251 µM [inhibitor, partial curve]",–
CC(C)(C)NC(=O)COC(=O)c1nsc(Cl)c1Cl,"inconclusive: 2.82 µM [quencher, side channel, partial curve]",–
CC(C)=CC(=O)OCC(=O)Nc1cc([N+](=O)[O-])ccc1F,"inconclusive: 14.1 µM [quencher, side channel, partial curve]",–
O=C1CC(c2cccs2)Sc2nc3ccccc3n21 (stereo not drawn),–,inactive: 6.74%
O=C(NCCO)C(O)C(O)C(=O)NCCO (stereo not drawn),"inconclusive: 8.91 µM [quencher, side channel, partial curve]",–
N#Cc1ccc(COc2cccnc2[N+](=O)[O-])cc1,"inconclusive: 14.1 µM [quencher, side channel, partial curve]",–
COc1ccc2cc(CN(CCO)C(=O)c3ccc(Br)cc3)c(=O)[nH]c2c1,–,inactive: -1.3%
CCOC(=O)N1CC=C2C(C#N)=C(N)C(C#N)(C#N)[C@H](c3ccc(OC(C)C)c(OCC)c3)[C@H]2C1,"inconclusive: 28.2 µM [quencher, side channel, single point]",–
S=C(NCc1ccco1)Nc1ccc(Cl)c(Cl)c1,–,inactive: 5.92%
O=[N+]([O-])c1ccc(Nc2cccc(F)c2)nc1,"inconclusive: 17.8 µM [quencher, single point]",–
COc1ccccc1C(c1nnnn1Cc1ccccc1)N1CCC(C(N)=O)CC1 (stereo not drawn),"inconclusive: 39.8 µM [inhibitor, single point]",–
Cc1ccc2[nH]c(=O)c(CNC(C)C)cc2c1,"inconclusive: 14.1 µM [quencher, side channel, partial curve]",–
CCCN(CCC)C(=O)c1ccc2c(c1)S(=O)(=O)c1ccccc1C2=O,"inconclusive: 15.8 µM [quencher, partial curve]",–
O=C1Nc2ccccc2/C1=N/N=C/c1ccc(-c2ccc([N+](=O)[O-])cc2)o1,"inconclusive: 39.8 µM [quencher, single point]",–
COc1cc(/C=C/C(C)=O)cc(OC)c1OC,–,inactive: -4.73%
Cc1nc2ccc(NC(=O)c3ccc([N+](=O)[O-])cc3)cc2[nH]1,"inconclusive: 11.2 µM [quencher, side channel, partial curve]",–
CC(=O)NCCOC(=O)Nc1sc(=S)n(C)c1C,"inconclusive: 100 µM [inhibitor, single point]",–
Cn1c(=O)[nH]c(=O)c2c1nc(N1CCCCC1)n2CC(O)COc1ccc([N+](=O)[O-])cc1 (stereo not drawn),"inconclusive: 12.6 µM [quencher, partial curve]",–

Compound,Potency,"activity change, negative = inhibition"
COc1ccc(CNC(=O)C(NS(=O)(=O)c2cccc3nsnc23)C(C)C)cc1 (stereo not drawn),"inconclusive: 14.1 µM [quencher, partial curve]",–
O=C(NCc1cccnc1)C1CCC(CNS(=O)(=O)c2cccc3nsnc23)CC1 (stereo not drawn),"inconclusive: 14.1 µM [quencher, partial curve]",–
COc1ccc(C2c3cc(OC)c(OC)cc3CCN2C(=O)c2cccc([N+](=O)[O-])c2)cc1OC (stereo not drawn),"inconclusive: 39.8 µM [quencher, side channel, single point]",–
Cc1csc(Sc2ccc(C(=O)OCC(=O)Nc3ccc(OC(F)(F)F)cc3)cc2[N+](=O)[O-])n1,"inconclusive: 11.2 µM [quencher, side channel, partial curve]",–
COc1cc(OC)cc(C(=O)NC(=S)Nc2ccc(Cl)c(C(=O)O)c2)c1,–,inactive: -0.482%
CCOC(=O)C(/C(C)=N/NC(=O)c1ccccc1[N+](=O)[O-])C(C)C (stereo not drawn),–,inactive: 12.9%
CCCCSc1nc2sc3c(c2c(=O)[nH]1)CC(C)(CC)OC3 (stereo not drawn),–,inactive: -0.4%
[O-][n+]1c2ccccc2[n+]([O-])c2cc(O)ccc21,"inconclusive: 12.6 µM [quencher, side channel, partial curve]",–
CC(O)CNCCNCc1c(OCc2ccccc2)ccc2ccccc12 (stereo not drawn),"inconclusive: 25.1 µM [quencher, single point]",–
CCC(Sc1nc2c(c(=O)n1CC)SC(C)C2)C(=O)OC (stereo not drawn),"inconclusive: 0.158 µM [quencher, side channel, full curve]",–
N#Cc1cc2cc3ccccc3nc2n2c(=O)c3ccccc3nc12,"inconclusive: 4.47 µM [quencher, side channel, partial curve]",–
O=C(Nc1ccccc1)c1ccc(NCCN2C(=O)CCC2=O)c([N+](=O)[O-])c1,"inconclusive: 2.82 µM [quencher, full curve, poor fit]",–
Oc1c(N=NC(=S)Nc2ccccc2F)c2ccccc2n1Cc1ccc(Cl)cc1,–,inactive: -0.0266%
C/C(=N/NC(=O)c1ccncc1)c1ccccc1,–,inactive: 1.37%
O=C1c2ccccc2-c2c1cccc2C(=O)N1CCOCC1,"inconclusive: 28.2 µM [quencher, side channel, single point]",–
COc1ccc(C2NC(=O)NC(C)=C2C(C)=O)cc1 (stereo not drawn),"inconclusive: 31.6 µM [fluorescent, side channel, single point]",–
OC(CSc1ccccc1Cl)CN1CCN(c2ccccc2F)CC1 (stereo not drawn),"inconclusive: 7.08 µM [quencher, side channel, partial curve]",–
COc1ccc(CC2(CO)CCN(Cc3cccn3-c3ccccn3)CC2)cc1,–,inactive: -6.31%
c1ccc2oc(SCc3cn4ccccc4n3)nc2c1,–,inactive: -6.72%
CC(C)Cn1c(=S)[nH]c2ccccc2c1=O,"inconclusive: 31.6 µM [fluorescent, side channel, single point]",–
O=C1C(N2CCOCC2)=C(n2nnc3ccccc32)C(=O)c2ccccc21,"inconclusive: 17.8 µM [quencher, side channel, partial curve]",–

# From PubChem BioAssay AID2675 (National Center for Advancing Translational Sciences (NCATS), 2010)
